Measurements as given in PubChem BioAssay AID759 (NMMLSC, 2007).
In all, about 190,000 compounds went through this assay and about 270 (0.14%) were called active. This list was built around the results that the source calls inconclusive (neither active nor inactive); the mix of calls is not that of the screen.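 How the source made its calls: active means GTP binding activity at least 20% away from the 100% baseline, either lowered as inhibitor or raised as activator; inconclusive means flagged as likely green fluorescent, judged across all proteins in the well; inactive means the rest.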

Each compound was assayed against GTPase HRas (Homo sapiens) (UniProt P01112) (assay: HRas wt fluorescent GTP binding changes, either direction – biochemical, wildtype, bead-based flow cytometry, multiplex, primary screen (AID 759;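 further: 0% = unlabeled GTP competition control and 100% = no-compound control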)). Conditions: GST-Ras wt beads, Bodipy-FL-GTP binding, at 10 µM, actives lie on both sides.
Sequence of UniProt P01112 (P01112 whole entry, looked up): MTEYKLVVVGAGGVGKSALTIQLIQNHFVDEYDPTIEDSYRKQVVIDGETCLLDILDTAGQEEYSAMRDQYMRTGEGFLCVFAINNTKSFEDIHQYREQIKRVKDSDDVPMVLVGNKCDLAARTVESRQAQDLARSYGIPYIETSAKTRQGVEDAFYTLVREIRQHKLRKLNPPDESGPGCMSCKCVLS

Compound	GTP binding activity
CCN(CC)c1ccc(/C=c2\sc3nnc(-c4ccccc4Cl)n3c2=O)cc1	inconclusive: 146%
Brc1ccc(C2Nc3cccc4cccc(c34)N2)s1	inactive: 99%
CC1=NCCN1S(=O)(=O)c1ccccc1[N+](=O)[O-]	inactive: 102%
Cc1n[nH]c(C)c1S(=O)(=O)N1CCC(C(=O)O)CC1	inconclusive: 104%
CCCOC(=O)c1ccc(Cl)c(NC(=O)c2ccc(-c3ccccc3)cc2)c1	inconclusive: 105%
COc1ccc2ccccc2c1C(=O)/C=C\c1ccoc1	inconclusive: 100%
COCCN(CCOC)S(=O)(=O)c1ccc(C(=O)Nc2nc(-c3ccncc3)cs2)cc1	inconclusive: 93%
Cc1ccc(NC(=O)COC(=O)/C=C/c2cccs2)c(C)c1	inactive: 101%
COc1ccc(-c2cc(C(F)(F)F)nc(NCc3ccco3)n2)cc1OC	inconclusive: 101%
CCC(=O)NCc1c(C)c(C)n(Cc2ccccc2)c1-n1cccc1	inactive: 99%
CCN(CC)c1ccc(-c2nc3cnccn3c2NC2CCCC2)cc1	inactive: 102%
COCCN(C(=S)Nc1cc(C)ccc1C)C(C)c1cccnc1 (centres undefined)	inconclusive: 488%
Cc1cc(S(=O)(=O)N(Cc2ccc(F)cc2)CC2CCCO2)ccc1-n1cnnn1 (centres undefined)	inconclusive: 105%
COc1ccc(NC(=O)c2c(N)no[n+]2[O-])cc1	inconclusive: 94%
COC(=O)c1cc2c(ccn2-c2ccc(F)cc2)n1CC(=O)OC(C)C	inconclusive: 96%
CCN(CC)S(=O)(=O)c1ccc(NC(=O)Cc2cccs2)cc1	inconclusive: 96%
Cc1cccc(NS(=O)(=O)c2cccc3nonc23)c1	inconclusive: 93%
COc1ccc(N2CCN(CCNC(=O)c3ccc4c(c3)[nH]c(=S)n3c5ccccc5nc43)CC2)cc1	inactive: 93%
CCOC(=O)NC(Nc1ncccn1)(C(F)(F)F)C(F)(F)F	inconclusive: 96%
O=C(CSc1nnc(SCc2cccc3ccccc23)s1)c1ccc2c(c1)OCO2	inconclusive: 92%

Compound	GTP binding activity
CCN(CC)S(=O)(=O)c1cc(NC(=O)CSc2nc3c(cc2C#N)C(=O)CC(C)(C)C3)ccc1C	inactive: 95%
CCCC(=O)N(Cc1cc2ccccc2[nH]c1=O)c1ccccc1OC	inconclusive: 108%
OC1(c2cccc(C(F)(F)F)c2)CCN(c2ncnc3c2[nH]c2ccc(F)cc23)CC1	inconclusive: 93%
CCN(CC)C(=O)CCCC(=O)N(CC)CC	inactive: 101%
Cc1cccc(C(=O)c2ccccc2C(=O)O)c1O	inconclusive: 111%
Cc1ccc(CNC(=O)Cc2csc(Nc3nc(=S)[nH]c4ccccc34)n2)cc1	inconclusive: 95%
CC(=O)Nc1ccc(N2CCOCC2)c([N+](=O)[O-])c1	inactive: 98%
CCC(CC)C(=O)c1c[nH]c(C(=O)NCc2cccnc2)c1	inconclusive: 94%
Fc1cccc(F)c1-n1c(CN2CCOCC2)csc1=S	inconclusive: 95%
O=C(c1ccc(S(=O)(=O)NCc2ccco2)cc1)N1CCN(Cc2ccccc2)CC1	inconclusive: 98%
O=C1OCc2cc(-n3cccc3)ccc21	inactive: 98%
CCCn1nc(C(=O)Nc2cccc(C(=O)OC)c2)c2ccccc2c1=O	inconclusive: 92%
COc1ccc(NC(=O)c2ccc(Cl)nc2)cc1S(=O)(=O)N1CCCCC1	inconclusive: 90%
CCc1nnc(NC(=O)Cc2ccc(Br)cc2)s1	inconclusive: 98%
COCCCNC(=S)N1CCN(c2ccccc2)CC1	inactive: 96%
Cc1nc(SCC(=O)O)c(C#N)c(C)c1CC(=O)c1ccccc1	inactive: 93%
Cc1cc(Cl)ccc1OCCCC(=O)OCC(N)=O	inactive: 98%
NNC(=O)c1ccc(Cn2cc(Br)cn2)cc1	inconclusive: 105%
N#Cc1ccc(-c2ccc(OCC(=O)NCC(=O)Nc3ccc(F)c(F)c3F)cc2)cc1	inconclusive: 105%
COC(=O)c1cc(NC(=O)c2cccs2)ccc1N1CCOCC1	inconclusive: 95%

Compound	GTP binding activity
C=CCn1c(SCC(=O)N2CC(=O)Nc3ccccc32)nc2scc(-c3ccccc3)c2c1=O	inconclusive: 104%
Cc1ccc2c(c1)c(-c1ccccc1)nc1nncn12	inconclusive: 95%
Cc1nnc(SCc2cc(=O)[nH]c(N3CCN(Cc4ccccc4)CC3)n2)s1	inconclusive: 102%
CCOc1ncccc1C(=O)OCC(=O)NCCc1ccc(OC)cc1	inconclusive: 105%
CC(C)(C)n1nc2c(c1NC(=O)Cc1cccc3ccccc13)CS(=O)(=O)C2	inconclusive: 94%
Cc1cc(C(=O)N/N=C/c2ccco2)n[nH]1	inconclusive: 96%
O=C1NCCN1C(=O)c1cccc(Cl)c1	inconclusive: 104%
COC(=O)c1ccccc1-c1ccc(C(c2c(C)[nH][nH]c2=O)c2c(C)[nH][nH]c2=O)o1	inconclusive: 89%
Cc1cc(C(=O)OCC(=O)Nc2ccc(S(N)(=O)=O)cc2)c2ccccc2n1	inactive: 93%
CS(=O)(=O)c1nc(-c2ccc(F)cc2)cc(C(F)(F)F)n1	inconclusive: 95%
O=C(CSc1ncnc2ccccc12)NCCCO	inconclusive: 104%
COc1ccc([N+](=O)[O-])cc1NC(=O)c1cn(-c2ccc(Cl)cc2)c(=O)c2ccccc12	inactive: 98%
CCOc1ccc(CN(C)CC(=O)Nc2cccc(C)c2)cc1OC	inconclusive: 97%
CCOc1cc(NS(=O)(=O)c2ccc(Cl)cc2)c(OCC)cc1NC(=O)CC(C)C	inactive: 99%
C=CCn1c(Cn2nnc3ccccc32)nnc1SCC(=O)N/N=C/c1cc(Br)cc(OC)c1O	inconclusive: 92%
CCNc1cc2n(c(=O)n1)CCc1cc(OC)c(OC)cc1-2	inactive: 86%
CCc1nnc(NC(=O)CSc2nnc(CNc3ccc(F)cc3)n2C2CCCCC2)s1	inconclusive: 151%
N#C/C(=C/c1ccc(-c2ccccc2)o1)c1nc(-c2cccs2)cs1	inconclusive: 158%
CCOC(=O)N1CCC(NC(=O)CS(=O)(=O)Cc2nc(-c3ccccc3C)oc2C)CC1	inconclusive: 104%
